In all, about 110,000 compounds went through this assay and about 230 (0.21%) showed an effect of 50% or more. The list shows a part of the results.
target: DPAP1 (Plasmodium falciparum, UniProt Q8IIJ9); test: primary screen, percent inhibition; read by cleavage of a fluorogenic dipeptide substrate; higher = more effect of the substance; parameters: species or system P. falciparum D10 trophozoite lysates; single well
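Note: 30 min substrate incubation versus DMSO and 10 µM JCP410 controls.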

Chain of DPAP1 (Q8IIJ9 whole entry, looked up): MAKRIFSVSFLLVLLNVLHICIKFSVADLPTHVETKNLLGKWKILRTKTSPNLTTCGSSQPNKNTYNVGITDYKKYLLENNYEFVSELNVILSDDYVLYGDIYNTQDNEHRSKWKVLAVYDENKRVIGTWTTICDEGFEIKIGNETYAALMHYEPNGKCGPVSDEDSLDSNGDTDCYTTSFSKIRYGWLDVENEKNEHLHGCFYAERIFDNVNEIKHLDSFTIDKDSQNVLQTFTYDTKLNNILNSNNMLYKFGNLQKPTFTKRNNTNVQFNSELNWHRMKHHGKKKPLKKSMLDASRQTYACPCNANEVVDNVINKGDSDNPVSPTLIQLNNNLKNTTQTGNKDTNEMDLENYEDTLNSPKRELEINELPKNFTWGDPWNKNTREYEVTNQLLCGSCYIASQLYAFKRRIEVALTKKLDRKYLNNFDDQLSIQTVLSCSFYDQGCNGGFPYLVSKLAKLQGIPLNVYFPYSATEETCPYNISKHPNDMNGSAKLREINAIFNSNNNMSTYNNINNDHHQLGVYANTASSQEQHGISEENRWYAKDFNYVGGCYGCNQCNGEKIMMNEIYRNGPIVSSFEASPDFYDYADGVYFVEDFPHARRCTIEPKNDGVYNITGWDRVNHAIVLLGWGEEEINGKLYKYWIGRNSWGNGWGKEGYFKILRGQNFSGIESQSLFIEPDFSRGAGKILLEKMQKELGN

Going from `Cc1cc(C)nc(NS(=O)(=O)c2ccc(NC(=O)c3ccc4c(c3)OCO4)cc2)n1` to `CCn1ccc(C(=O)Nc2ccc(S(=O)(=O)Nc3ccc(OC)cc3)cc2)n1`, the “% Inhibition @ 10 uM” value rises from -3.45% to 2.09%.

Going from `CN1CCN(C(=O)/C(=C\c2cccnc2)NC(=O)c2ccco2)CC1` to `CCCN1CCN(C(=O)c2ccc(CS(=O)c3cccc(Cl)c3)o2)CC1` (centres unmarked), the “% Inhibition @ 10 uM” value rises from -4.93% to -3.91%.

Compared with `O=C1CC(C(=O)NCc2ccccc2)NC(N2CCOCC2)=N1` (centres unmarked), `CCS(=O)(=O)N1CCC(C(=O)NCCc2ccccc2)CC1` is lower in “% Inhibition @ 10 uM” value: 4.08% for the first, 3.79% for the second.

Going from `Cn1cccc1Cc1nnc(SCC(=O)N2CCCC2)n1CCc1ccccc1` to `O=C(NCCCc1ccccc1)C1CCCN(S(=O)(=O)c2c[nH]cn2)C1` (centres unmarked), the “% Inhibition @ 10 uM” value falls from 5.77% to -13.8%.

First: COc1ccc2nc(NC(=O)c3cc(=O)c4cc(C)ccc4o3)sc2c1
Second: COc1ccc2nc3sc(C(=O)NC(C)C)cc3cc2c1
The “% Inhibition @ 10 uM” value of the first is higher: -3.24% for the first, -6.91% for the second.

Compared with `CCOc1ccc(C(=O)N(Cc2ccccc2)C2CCS(=O)(=O)C2)cc1` (centres unmarked), `O=C(O)CCC(=O)N(CCc1ccccc1)C1CC(=O)N(c2ccc(Cl)cc2)C1=O` (centres unmarked) is higher in “% Inhibition @ 10 uM” value: 0.561% for the first, 2.73% for the second.

Compared with `CCOc1ccccc1/C=C1/N=C(c2ccc(OC)c(Br)c2)OC1=O`, `CCOc1cc(/C=C2/NC(=O)N(Cc3ccc(F)cc3)C2=O)ccc1O` is lower in “% Inhibition @ 10 uM” value: 5.63% for the first, 4.28% for the second.

First: COP(=O)(c1ccccc1)C(O)(c1ccccc1)c1ccccc1 (centres unmarked)
Second: O=C(NC(Nc1cc(C(F)(F)F)ccc1Cl)C(=O)c1ccccc1)c1ccccc1 (centres unmarked)
The “% Inhibition @ 10 uM” value of the first is higher: 6.89% for the first, -5.51% for the second.

Going from `O=C(Nc1ccccc1NC(=O)c1ccco1)c1ccco1` to `O=C(Nc1ccccc1C(F)(F)F)c1cccnc1`, the “% Inhibition @ 10 uM” value falls from 1.63% to -5.81%.

Going from `Cc1cc(C)n(-c2nnc3c(n2)[nH]c2ccccc23)n1` to `CCc1cc2c(NC(Cc3c[nH]c4ccccc34)C(=O)O)nc(C)nc2s1` (centres unmarked), the “% Inhibition @ 10 uM” value falls from 16.9% to 4.87%.

Going from `Cc1ccc(SCc2n[nH]c3c2C(C(C)C)C(C#N)=C(N)O3)cc1` (centres unmarked) to `CC(C)c1ccc2oc(-c3cc(N)ccc3O)nc2c1`, the “% Inhibition @ 10 uM” value falls from 2.68% to 0.389%.

Compared with `Cc1ccc(C)c(NC(=O)CN(c2ccccc2F)S(C)(=O)=O)c1`, `CCOC(=O)C1=C(CSCc2ccccc2)NC(=O)NC1c1cc(C)ccc1C` (centres unmarked) is higher in “% Inhibition @ 10 uM” value: -3.28% for the first, 6.47% for the second.

First: CC(C)(O)C(=O)/C=C/c1ccc(Cl)cc1
Second: CC(=O)Nc1ccc(NC(=O)/C=C\C(=O)O)cc1
The “% Inhibition @ 10 uM” value of the first is higher: 4.33% for the first, -3.65% for the second.

Going from `CN1C(=O)c2ccccc2C(C(=O)NC2CCCc3ccccc32)C1c1cn(C)c2ccccc12` (centres unmarked) to `Cc1nn(CCC(=O)NCCc2ccccc2Cl)c(=O)c2nn(-c3ccccc3)c(C)c12`, the “% Inhibition @ 10 uM” value falls from 4.63% to -7.53%.

Compared with `Fc1ccc(COc2ccc(Br)cc2CNCC2CCCO2)cc1` (centres unmarked), `Cc1ccc(C2CCN(C(=O)c3ccc(CS(=O)(=O)c4ccccc4C)o3)C2)cc1` (centres unmarked) is lower in “% Inhibition @ 10 uM” value: 8.1% for the first, -2.72% for the second.

First: CCOC(=O)N1CCN(S(=O)(=O)c2cc(Cl)c(C)cc2OCC)CC1
Second: CCOC(=O)c1c(S(=O)(=O)N2CCc3ccccc3C2)c(C)n(C)c1C
The “% Inhibition @ 10 uM” value of the first is higher: -1.43% for the first, -7.06% for the second.

Going from `Cc1cc(C)c2nc(N3CCC(C(=O)N4CCN(Cc5ccccc5)CC4)CC3)sc2c1` to `O=S(=O)(c1ccc(OC(F)(F)F)cc1)N1CCN(c2nc3ccccc3s2)CC1`, the “% Inhibition @ 10 uM” value falls from 6.27% to 3.27%.

First: O=C(NCCCN1CCOCC1)c1ccc(Br)cc1
Second: Cc1cc(NCCN2CCOCC2)n2c(nc3ccccc32)c1C#N
The “% Inhibition @ 10 uM” value of the first is lower: -4.68% for the first, 20.5% for the second.

Going from `O=C(Nc1ccc(O)cc1)c1ccc([N+](=O)[O-])o1` to `COc1cc(OC)cc(C(=O)Nc2cnn(Cc3ccc(Cl)cc3)c2)c1`, the “% Inhibition @ 10 uM” value rises from 4.17% to 17.5%.

First: c1nc(N2CCOCC2)c2nc[nH]c2n1
Second: CC(CCc1ccco1)NC(=O)C1CCN(c2ncccn2)CC1 (centres unmarked)
The “% Inhibition @ 10 uM” value of the first is lower: -6.68% for the first, -6.43% for the second.

Going from `O=C(O)c1ccccc1C(=O)Nc1nccs1` to `CC(=O)c1cc2c(C)c(C(=O)c3ccccc3)oc2cc1O`, the “% Inhibition @ 10 uM” value falls from 5.98% to -4.28%.

First: Cc1ccccc1OCCCCCn1ccnc1
Second: CC(=O)c1c(C)n(CCOc2ccccc2F)c2ccccc12
The “% Inhibition @ 10 uM” value of the first is lower: -0.693% for the first, 3.36% for the second.

Going from `COC(=O)c1ccn(-c2nc(-c3cccs3)cc(C(F)(F)F)n2)n1` to `Cc1cc(NC(=O)Cn2nc(C(F)(F)F)c3c2CCCC3)n(-c2ccccc2)n1`, the “% Inhibition @ 10 uM” value rises from -7.85% to 0.778%.

Going from `CCOC(=O)c1cc(CC)sc1/N=C/C1C(=O)CCCC1=O` to `CC1CCc2c(sc(NC(=O)c3cccs3)c2C(N)=O)C1` (centres unmarked), the “% Inhibition @ 10 uM” value rises from 3.72% to 5.04%.

Going from `Cc1cc2n(c(=O)c1C#N)CCCN2c1cccc(Cl)c1` to `Cc1ccc(C)c(Cn2cnc3c(cnn3C)c2=O)c1`, the “% Inhibition @ 10 uM” value falls from 2.32% to 1.68%.

First: COc1ccc(S(=O)(=O)N2CCCCC2)cc1OC
Second: O=[N+]([O-])c1ccc(O)cc1CN1CCCCCC1
The “% Inhibition @ 10 uM” value of the first is higher: -0.582% for the first, -1.75% for the second.

Compared with `COc1ccc(C(=O)/C=C/c2cc(OC)c(OC)cc2OC)c(OC)c1`, `COCCN(CCOC)S(=O)(=O)c1ccc(C(=O)Nc2nc3c(s2)C(=O)CC(C)(C)C3)cc1` is higher in “% Inhibition @ 10 uM” value: -5.94% for the first, 5.94% for the second.

Going from `CCOc1ccc(N2C(=O)CC(NC3CCCC(C)C3C)C2=O)cc1` (centres unmarked) to `COc1ccc([N+]2=C3SCCCN3C(O)(c3ccc(Cl)cc3)C2)cc1` (centres unmarked), the “% Inhibition @ 10 uM” value rises from -0.48% to 0.258%.

First: CC(=O)NC1(C(=O)NC2CCCC2)CCCCC1
Second: Cn1c(SCC(=O)Nc2ncc(C34CC5CC(CC(C5)C3)C4)s2)nnc1-c1ccccc1
The “% Inhibition @ 10 uM” value of the first is lower: -2.53% for the first, -1.24% for the second.

Going from `CC(C)(C)c1cc(O)n(-c2ccccc2)n1` to `Cc1nn(C(=O)CCC(=O)NC(C)CCc2ccccc2)c2ccccc12` (centres unmarked), the “% Inhibition @ 10 uM” value rises from -5.13% to -2.88%.

Going from `O=C1NC(c2ccc3c(c2)OCO3)C(C(=O)c2ccccc2)C(O)(C(F)(F)F)N1` (centres unmarked) to `Oc1nc2ccccc2nc1C1=CNC2C=CC=CC12` (centres unmarked), the “% Inhibition @ 10 uM” value falls from 0.00477% to -8.01%.

Compared with `Oc1c2c(nc3nc(-c4ccc(Cl)cc4)nn13)CCC2`, `CN(C)c1ccc(/C=C2\SC(Nc3ccc(F)cc3)=NC2=O)cc1` is lower in “% Inhibition @ 10 uM” value: -0.671% for the first, -3.39% for the second.

With `Cc1nc(CC(=O)Nc2nnc(C)s2)cs1` the “% Inhibition @ 10 uM” value was -4.54%.

— publication PMC6919601, “Identification of Plasmodium dipeptidyl aminopeptidase allosteric inhibitors by high throughput screening” (PLoS ONE, 2019)
